This note sets out measurements from PubChem BioAssay AID1963576 (National Center for Advancing Translational Sciences (NCATS), 2024).

About 60 (0.1%) of roughly 46,000 compounds were called active. Not shown: some 3% with an inconclusive outcome. The call rests on the fitted dose curve; in most records, active means well fitted inhibition curve with a large enough effect; inconclusive means small, poorly fitted or top-dose-only effect; inactive means no such curve, though single readings can be large or run the other way. The list shows a part of the results.

This test in a line: Primary qHTS assay for Inhibitors of ovarian cancer metastasis using an organotypic tumor microenvironment (TME) model. Further: nearly all actives have a fitted effect of over 65% in size.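 On activity change, negative = inhibition: plate controls were DMSO wells for no effect and tomatine positive control wells for full effect.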 To be noted: SKOV3ip1-GFP adhesion/invasion on 3D omental model, fluorescence; series mostly up to 45.8 µM; activity change, negative = inhibition: at the top concentration. The procedure, abridged: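 A 3D layer of primary human omental fibroblasts, mesothelial cells, fibronectin and collagen I, grown 48 hr, received SKOV3ip1-GFP cells in serum-free medium plus compounds at 0.36-46 umol/L. After 2 hr RT and 16 hr 37 C, fixed adherent GFP cells were counted; normalized to DMSO and tomatine.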
`COc1cc(C=CC(=O)O)ccc1O`: the “activity change, negative = inhibition” value is inactive: 0.771%. With `Cc1nn(CC(=O)N2CCN(c3ccccc3F)CC2)c(=O)c2cccn12`, the “activity change, negative = inhibition” value is inactive: -8.63%. Same read-out and setting: to `CCN(CC)c1ccc2nc3c(=O)n(C)c(=O)n(C)c3nc2c1` belongs inactive: -21.9%; to `CC(C)c1ccc(NC(=O)[C@H]2O[C@@H]3OC(C)(C)O[C@@H]3[C@H]3OC(C)(C)O[C@H]32)cc1`, inactive: 4.12%. As to `CCN1C(=O)c2ccccc2S(=O)(=O)c2ccc(C(=O)NCc3ccc(C)cc3)cc21`, the molecule was called inactive. As to `COc1ccc(CNC(=O)CCn2c(=O)c3cccn3c3ccc(F)cc32)cc1OC`, the “activity change, negative = inhibition” value was inactive: -6%.

On to `CC(C)c1ccc(NC(=O)C2CCC(CNS(=O)(=O)c3ccc4c(c3)CCCC(=O)N4)CC2)cc1` (stereo unspecified), for which the molecule was called inactive.

Take `CCc1ccc2occ(CC(=O)Nc3nnc(SC)s3)c2c1`: the “activity change, negative = inhibition” value is inactive: -15.4%.

On to `CCOc1ccc(-c2nnc(SCC(=O)NC3CCCCC3)nc2-c2ccc(OCC)c(OC)c2)cc1OC`, for which the “activity change, negative = inhibition” value was inactive: 2.51%.

For the molecule `CC(C)c1nn2c(=O)cc(COC(=O)c3cccc(NC(=O)CCc4ccccc4)c3)nc2s1`, the “activity change, negative = inhibition” value is inactive: 5.17%.

`O=C(CSc1oc(-c2ccc(F)cc2)nc1S(=O)(=O)c1ccccc1)c1ccc(Cl)cc1`: the “activity change, negative = inhibition” value is inactive: 9.43%. For the molecule `CCN(Cc1ccccc1)C(=O)Cn1c(=O)cc(C)c2c(C)nn(-c3cccc(F)c3)c21`, the “activity change, negative = inhibition” value is inactive: 2.96%.

With `CCn1nc(C)c(CCN(C)C(=O)Nc2cc(Cl)c(OC)cc2OC)c1C`, the outcome was inactive.

For the molecule `COc1ccc(Cc2c(C)nn(-c3nc(C)c(C(=O)Nc4cccc(C(C)=O)c4)s3)c2C)cc1`, the “activity change, negative = inhibition” value is inactive: 5.62%. Turning to `CCc1ccc2nc(N(Cc3cccnc3)C(=O)Cc3ccccc3)sc2c1`, the “activity change, negative = inhibition” value was inactive: -13.3%.

As to `O=C(O)c1ccc(Nc2ncnc3scc(-c4ccccc4)c23)cc1`, the “activity change, negative = inhibition” value is inactive: -7.94%. On to `Cn1c(=O)c2c(-c3ccccc3)n(-c3cccc(C#N)c3)cc2n(C)c1=O`, for which the “activity change, negative = inhibition” value was inactive: 8.52%. Same read-out and setting: as for `COc1ccc(-c2ccc(=O)n(CC(=O)Nc3ccc(Br)cc3F)n2)cc1`, the figure is inactive: 3.23%; as for `CCS(=O)(=O)c1nc(S(=O)(=O)c2ccc(Cl)cc2)c(NCc2ccc(Cl)cc2)s1`, inactive: 2.4%; as for `CCOC(=O)c1[nH]c(C)c(CCC(=O)N2CCN(c3ccc(Cl)cc3)CC2)c1C`, inactive: 5.12%.

`CCc1ccccc1N1C(=O)N(Cc2cc(=O)n3ccccc3n2)c2ccccc2S1(=O)=O`: the molecule was classed as inactive.

As to `O=C(NCc1ccccc1)c1c2c(nc3ccccc13)C(=O)N(C1CCCCC1)C2`, the “activity change, negative = inhibition” value is inactive: -1.51%. The same measure, in the same setting: to `Cc1ccc2c(c1)N(C(=O)c1ccc(F)cc1)C(C)(C)CC2(C)c1ccccc1` (stereo unspecified) belongs inactive: 3.64%; to `COC(=O)c1cc(OC)c(OC)cc1NC(=O)c1ccc2c(c1)CCN2S(C)(=O)=O`, inactive: -1.06%; to `CCC(C(=O)NCc1ccccc1Cl)n1c(=O)c2cccn2c2ccccc21` (stereo unspecified), inactive: 8.46%.

For `CCOC(=O)c1c(Nc2cc(C)cc(C)c2)nnc(-c2ccccc2)c1-c1ccccc1`, the result was inactive.

In the case of `O=C(Nc1cccc(-c2nc3ccccc3o2)c1)c1cccc(Br)c1`, the “activity change, negative = inhibition” value is inactive: 0.42%. On to `CCCCC(=O)OC1=C(C(=O)c2ccccc2)N(CC)S(=O)(=O)c2ccccc21`, for which the “activity change, negative = inhibition” value is inactive: 10%. The same measure, in the same setting: to `CSc1ccc(CNC(=O)c2cc3cc(S(=O)(=O)N4CCCCC4)ccc3n2C)cc1` belongs inactive: -2.31%; to `COc1ccc(Cn2ccc3nc(C)c(C(=O)Nc4ccc(OC(F)(F)F)cc4)cc3c2=O)cc1`, inactive: -0.648%. Regarding `COc1ccccc1N1CCN(S(=O)(=O)c2c(C)nc3sc(C)c(C)n3c2=O)CC1`, the “activity change, negative = inhibition” value is inactive: -24.2%.

For the molecule `Cc1cccc(OCCSc2nc(-c3cccs3)nc3cc(=O)[nH]n23)c1`, the “activity change, negative = inhibition” value was inactive: -2.14%. `O=C(NCC(c1cccnc1)N1CCc2ccccc2C1)C(=O)Nc1ccccc1` (stereo unspecified): the “activity change, negative = inhibition” value is inactive: 7.1%. For `COc1ccccc1CNS(=O)(=O)c1ccc(F)c(C(=O)Nc2cc(Cl)ccc2OC)c1`, the outcome was inactive. With `COc1cccc(CNC(=O)C2CCN(S(=O)(=O)N3CCC(C)CC3)CC2)c1`, the “activity change, negative = inhibition” value is inactive: -5.47%.

Consider `CC1CCN(S(=O)(=O)c2ccc3nc(Nc4ccc(C#N)cc4)ccc3c2)CC1`, for which the “activity change, negative = inhibition” value is inactive: 1.3%. `COc1cccc2c1Oc1ncccc1N(C(=O)Nc1cccc(Cl)c1)C2`: the “activity change, negative = inhibition” value was inactive: 3.17%. For `Cc1cccc(CNC(=O)c2ccc3c(c2)N(C)C(=O)C2CCCCN32)c1` (stereo unspecified), the “activity change, negative = inhibition” value is inactive: -2.63%. As for `COc1ccc(CNS(=O)(=O)c2cnc(N)nc2)cc1`, the “activity change, negative = inhibition” value is inactive: -0.247%. Consider `Cc1ccc(CNC(=O)c2cc(S(=O)(=O)N3CCCCCC3)cn2C)cc1`, for which the molecule was classed as inactive.

As to `CCOc1ccccc1NC(=O)CN1c2ccccc2S(=O)(=O)c2ccccc21`, the “activity change, negative = inhibition” value is inactive: 0.329%. With `O=C(Nc1ccc(F)cc1F)c1cnn(-c2ccc(F)cc2)c1-n1cccc1`, the outcome was inactive. In the case of `Cn1nc(-c2ccc(C(=O)Nc3cccc(C(F)(F)F)c3)cc2)c2ccccc2c1=O`, the molecule was called inactive.

As to `CCCCC(=O)OC1=C(C(=O)c2ccccc2)N(C)S(=O)(=O)c2ccccc21`, the “activity change, negative = inhibition” value was inactive: -3.66%. `CCOc1ccccc1NC(=O)C1CCN(S(=O)(=O)c2ccc3[nH]c4c(c3c2)CCCCC4)CC1`: the “activity change, negative = inhibition” value was inactive: 5.84%.

In the case of `Cc1nn(C)c(C)c1S(=O)(=O)N(CC(=O)N1CCN(c2ccccc2)CC1)c1ccc(C(C)C)cc1`, the “activity change, negative = inhibition” value is inactive: 4.26%. In the case of `COc1cc2c(cc1OC)[C@@H]1C(=O)c3ccc4c(c3O[C@@H]1CO2)C=CC(C)(C)O4`, the “activity change, negative = inhibition” value was inactive: 1.7%. In the case of `Cc1ccccc1NC(=O)c1ccc(F)c(S(=O)(=O)N(C)C2CCCCC2)c1`, the “activity change, negative = inhibition” value is inactive: -5.39%. For the molecule `O=C1C2=C(Nc3ccccc3SC2c2ccccc2C(F)(F)F)c2ccccc21` (stereo unspecified), the molecule was called inactive. As for `O=C(NCc1cccs1)c1ccc(CSc2nc3cccnc3n2Cc2ccccc2)cc1`, the “activity change, negative = inhibition” value was inactive: 0.757%.

Regarding `Cc1ccc(C)c(NC(=O)Cn2c(=O)ccc3cc(S(=O)(=O)N4CCCC4)ccc32)c1`, the “activity change, negative = inhibition” value is inactive: -1.91%.

`COc1ccccc1NC(=O)c1cc2c([nH]c1=O)CC(C)(C)CC2=O`: the “activity change, negative = inhibition” value is inactive: -0.132%. As to `O=C(CCn1c(=O)c2cccn2c2ccccc21)Nc1ccc(F)cc1`, the “activity change, negative = inhibition” value was inactive: -13.9%.

As to `CCCCCNC(=O)c1ccc2c(c1)nc(C)n2-c1cccc(C)c1`, the “activity change, negative = inhibition” value was inactive: 3.69%.

Consider `N#C/C(=C/c1ccc(Cl)cc1Cl)c1nc2ccccc2c(=O)[nH]1`, for which the outcome was inactive. For the molecule `CCN1CCN(C(c2ccccc2)c2c(O)cc(C)n(Cc3ccco3)c2=O)CC1` (stereo unspecified), the “activity change, negative = inhibition” value is inactive: -1.84%. For the molecule `COc1ccc(CNC(=O)C2CCN(S(=O)(=O)c3ccc(C)cc3)CC2)cc1`, the “activity change, negative = inhibition” value was inactive: -0.336%. Turning to `COc1ccc(NC(=O)C2CCCN(S(=O)(=O)c3cccs3)C2)cc1` (stereo unspecified), the outcome was inactive.

Consider `CCC1CCCCN1CCCNC(=O)c1cc2c(=O)n(CC)c3ccccc3c2s1` (stereo unspecified), for which the outcome was inactive.

In the case of `Fc1ccc(Cc2cn3cc(-c4ccc(Cl)cc4)nc3s2)cc1`, the “activity change, negative = inhibition” value was inactive: 18.7%. With `CC1Cc2cc(S(=O)(=O)N(C)c3ccc(Br)cc3)ccc2N1C(=O)C1CC1` (stereo unspecified), the “activity change, negative = inhibition” value was inactive: -24.2%.
